We go through ten compounds from the supplement of paper PMC4604168 (melanoma cell lines).

This is one part of the list. Repeats are few or missing, and single values can be far off.

Some test systems named below: MZ2-MEL; MeWo; RPMI7951; RVH-421; SkMel28; SkMel2; SkMel30; SkMel5; UACC257; UACC62.
What all share (test): cell count relative to DMSO control; melanoma cells; higher = more viable cells
Holding throughout (conditions): library dose: low library concentration; 72 h
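Also: cell number obtained by counting DAPI-stained nuclei in high-throughput microscope images with image analysis software, screen run in 1,536-well plates.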

As to `Cc1cc(Nc2cc(N3CCN(C)CC3)nc(Sc3ccc(NC(=O)C4CC4)cc3)n2)n[nH]1` [Tozasertib] + O=C(Nc1ccccc1)c1cc([N+](=O)[O-])ccc1Cl [GW9662] (first compound 0.006 µM, partner dose 2 µM), the cell count in the assay with MZ2-MEL was 101%; with MeWo, 74.1%; in the assay with RPMI7951, 72.7%; in the assay on RVH-421, 85.4%; with SkMel28, 90.2%; with SkMel2, 100%. The cell count with SkMel30 is 95.9%; with SkMel5, 103%; in the assay on UACC257, 98.7%; in the assay with UACC62, 79.9%.

On to `N#CC[C@H](C1CCCC1)n1cc(-c2ncnc3[nH]ccc23)cn1` [ruxolitinib] + O=C(CCCCCCC(=O)Nc1ccccc1)NO [vorinostat] (first compound 1 µM, partner dose 0.08 µM), for which the cell count stood at 107% in the assay on MZ2-MEL; 97.4% in the assay on MeWo; 89.5% in the assay on RPMI7951; 103% in the assay on RVH-421; 92.6% in the assay on SkMel28; 100% in the assay with SkMel2. Also, the cell count turned out to be 135% with SkMel30, 98.6% in the assay on SkMel5 and 88% in the assay on UACC257.

For `CC[C@]1(O)C[C@H]2CN(CCc3c([nH]c4ccccc34)[C@@](C(=O)OC)(c3cc4c(cc3OC)N(C=O)[C@H]3[C@@](O)(C(=O)OC)[C@H](OC(C)=O)[C@]5(CC)C=CCN6CC[C@]43[C@@H]65)C2)C1` [vincristine] + NCC(=O)Nc1ccc(-n2nc(C(F)(F)F)cc2-c2ccc3c(ccc4ccccc43)c2)cc1 [OSU03012] (first compound 0.0001 µM, partner dose 1 µM), the cell count in the assay on MZ2-MEL is 94.6%; with MeWo it was 61.9%; in the assay on RPMI7951 it was 101%; in the assay on RVH-421 it was 69.8%; in the assay with SkMel28, 88.4%; in the assay on SkMel2, 70.2%. For the same compound, the cell count in the assay on SkMel30 worked out at 49%; with SkMel5, 82.6%; in the assay with UACC257, 71.9%; in the assay on UACC62, 84.1%.

In the case of `Cc1cc(Nc2cc(N3CCN(C)CC3)nc(Sc3ccc(NC(=O)C4CC4)cc3)n2)n[nH]1` [Tozasertib] + NC(=O)Nc1cc(-c2cccc(F)c2)sc1C(=O)N[C@H]1CCCNC1 [AZD7762] (first compound 0.006 µM, partner dose 0.02 µM), the cell count in the assay on MZ2-MEL is 109%; with MeWo, 94.8%; with RPMI7951, 76.7%; with RVH-421 it was 119%; in the assay on SkMel28, 99.4%; in the assay with SkMel2 it was 99.9%. The cell count worked out at 99.1% in the assay on SkMel30, 103% in the assay with SkMel5, 156% with UACC257 and 76.6% in the assay with UACC62.

`N#CC[C@H](C1CCCC1)n1cc(-c2ncnc3[nH]ccc23)cn1` [ruxolitinib] + Cc1cc([N+](=O)[O-])ccc1NS(=O)(=O)c1cc(Cl)ccc1Cl [FH535] (first compound 1 µM, partner dose 1 µM): the cell count was 101% in the assay with MZ2-MEL; 97.9% with MeWo; 106% in the assay on RPMI7951; 210% with RVH-421; 109% in the assay on SkMel28; 109% in the assay on SkMel2. The cell count in the assay with SkMel30 amounted to 113%; in the assay on SkMel5, 94.5%; with UACC257, 120%; in the assay with UACC62, 106%.

With `Cc1cc(Nc2cc(N3CCN(C)CC3)nc(Sc3ccc(NC(=O)C4CC4)cc3)n2)n[nH]1` [Tozasertib] + COc1ccc(COc2ccc(Cc3cnc(N)nc3N)cc2OC)cc1 [GW2580] (first compound 0.006 µM, partner dose 1 µM), the cell count in the assay with MZ2-MEL was 92.1%; with MeWo, 100%; with RPMI7951 it was 91.7%; in the assay on RVH-421 it was 99.3%; with SkMel28, 94.5%; in the assay with SkMel2, 97.2%. For the same compound, the cell count in the assay with SkMel30 is 95.9%; in the assay on SkMel5, 102%; with UACC257 it was 110%; in the assay with UACC62, 87.1%.

Take `Cc1cc(Nc2cc(N3CCN(C)CC3)nc(Sc3ccc(NC(=O)C4CC4)cc3)n2)n[nH]1` [Tozasertib] + COc1cc2ncnc(Nc3ccc(Oc4ccccc4)cc3)c2cc1OC [SrcI1] (first compound 0.006 µM, partner dose 2 µM): the cell count in the assay on MZ2-MEL is 94.5%; in the assay on MeWo it was 88%; in the assay with RPMI7951 it was 101%; with RVH-421, 414%; with SkMel28 it was 74.5%; with SkMel2, 111%. For the same compound, the cell count with SkMel30 worked out at 66.3%; with SkMel5, 91.3%; in the assay on UACC257, 66.6%; in the assay on UACC62, 75.3%.

Take `Cc1cc(Nc2cc(N3CCN(C)CC3)nc(Sc3ccc(NC(=O)C4CC4)cc3)n2)n[nH]1` [Tozasertib] + CCCCCCCCCCCC1=C(O)C(=O)C=C(O)C1=O [Embelin] (first compound 0.006 µM, partner dose 1.2 µM): the cell count came out at 99.1% with MZ2-MEL; 106% with MeWo; 98.9% in the assay with RPMI7951; 97.8% in the assay with RVH-421; 93.4% with SkMel28; 96.2% with SkMel2. In addition, the cell count in the assay with SkMel30 stood at 114%; in the assay with SkMel5 it was 96.4%; in the assay with UACC257, 74.1%; in the assay with UACC62, 90.6%.

In the case of `Cc1cc(Nc2cc(N3CCN(C)CC3)nc(Sc3ccc(NC(=O)C4CC4)cc3)n2)n[nH]1` [Tozasertib] + CO[C@@H]1[C@H](N(C)C(=O)c2ccccc2)C[C@H]2O[C@]1(C)n1c3ccccc3c3c4c(c5c6ccccc6n2c5c31)C(=O)NC4 [Midostaurin] (first compound 0.006 µM, partner dose 0.08 µM), the cell count amounted to 93.3% with MZ2-MEL; 75.8% in the assay with MeWo; 79.5% in the assay with RPMI7951; 70.7% with RVH-421; 109% with SkMel28; 94.2% with SkMel2. Further, the cell count with SkMel30 came out at 108%; in the assay on SkMel5 it was 83.1%; in the assay with UACC257, 40.2%; in the assay on UACC62, 90.6%.

For the compound `CC[C@]1(O)C[C@H]2CN(CCc3c([nH]c4ccccc34)[C@@](C(=O)OC)(c3cc4c(cc3OC)N(C=O)[C@H]3[C@@](O)(C(=O)OC)[C@H](OC(C)=O)[C@]5(CC)C=CCN6CC[C@]43[C@@H]65)C2)C1` [vincristine] + Cc1cc(N2CCOCC2)cc2[nH]c(-c3c(NC[C@@H](O)c4cccc(Cl)c4)cc[nH]c3=O)nc12 [BMS536924] (first compound 0.0001 µM, partner dose 0.2 µM), the cell count with MZ2-MEL came out at 91.7%; in the assay with MeWo, 71.3%; in the assay with RPMI7951, 52.5%; with RVH-421, 90.2%; in the assay on SkMel28, 52.2%; in the assay with SkMel2 it was 86.3%. The cell count with SkMel30 was 44.2%; with SkMel5, 71.1%; with UACC257, 43.3%; in the assay on UACC62 it was 55.4%.
